In all, about 150,000 compounds went through this assay and about 540 (0.36%) showed an effect of 50% or more. The list shows a part of the results.
Each compound was assayed on Plasmodium falciparum (assay: Primary screen in NF54 nanoGlo assay, in single point, at 2uM, 72h; a lower Z score goes with more inhibition). Details: timepoint 72 hour.
Assay type: functional, Erythrocyte
In the case of `Cc1cccc(CS(=O)(=O)c2nnc([C@H](Cc3ccccc3)NC(=O)OC(C)(C)C)o2)c1`, the “% Inhibition” value is reported as -9% and the Z score is reported as 0.77.
For `CCN(CC(=O)Nc1nc(-c2ccc(Cl)cc2)cn1-c1ccc(C)cc1)S(=O)(=O)c1ccc(C)cc1`, the “% Inhibition” value was -11% and the Z score was 1.43.
`O=C1C2CCC3(CC2C(=O)N1CCc1c[nH]c2ccccc12)OCCO3` (stereo not drawn) was tested, and the “% Inhibition” value was -5% and the Z score was 0.58.
For `COc1ccc(C)cc1C(=O)N[C@H]1C[C@@H](c2nnc(CN(C)C)n2C)C1`, the “% Inhibition” value was -10% and the Z score was 1.97.
`CCc1nc(-c2ccc3c(c2)CCN3C(=O)Cc2ccc(F)cc2)no1` was tested, and the “% Inhibition” value was 12% and the Z score was -1.42.
In the case of `COC[C@H](C)N(Cc1ccc(OC)c(OC)c1)C(=O)Cc1cccnc1`, the “% Inhibition” value is reported as -7% and the Z score is reported as 1.34.
For `O=C(NCc1ccccc1)C1CCN(c2nc3nc[nH]c(=O)c3s2)CC1`, the “% Inhibition” value was -29% and the Z score was 2.55.
With `COCc1c(C(=O)N(C)Cc2ccc(C)o2)noc1C` the “% Inhibition” value was -1% and the Z score was 0.1.
In the case of `C[C@@]1(C(=O)NC2CCCCCCC2)Cn2c(ccc2-c2ccccc2)C(=O)N1Cc1ccccc1F`, the “% Inhibition” value is reported as -13% and the Z score is reported as 1.64.
With `CCOc1nccnc1N1CCN(CC(C)C)C(=O)C1` the “% Inhibition” value was -12% and the Z score was 1.49.
In the case of `COC[C@H]1CN(C2CCC2)CC12CCN(C(=O)Cc1cccc(OC)c1)CC2`, the “% Inhibition” value is reported as -9% and the Z score is reported as 1.05.
`O=C(CN1CC[C@@]2(CCCN(CC3CCCCC3)C2=O)C1)NC1CC1` was tested, and the “% Inhibition” value was 11% and the Z score was -1.44.
With `O=C(c1cccc(C(F)(F)F)c1)N1CCC(n2cnnc2C2CC2)CC1` the “% Inhibition” value was 2% and the Z score was -0.34.
With `COc1ccc(O[C@@H](C)CNC(=O)c2cc(C)n[nH]2)cc1` the “% Inhibition” value was 0% and the Z score was -0.08.
For `C[C@H](NC(=O)c1cnn(C)c1C1CC1)c1nc[nH]n1`, the “% Inhibition” value was 8% and the Z score was -1.22.
For `CCCCn1nnnc1NC(=O)N(C)C[C@H]1CCCCO1`, the “% Inhibition” value was -12% and the Z score was 1.6.
In the case of `CN(Cc1nccn1C)C(=O)c1ccc(=O)n(-c2ccccc2F)n1`, the “% Inhibition” value is reported as -1% and the Z score is reported as 0.08.
In the case of `CCc1ccc(NC(=O)c2sc3ncnc(N(C)C4CCCCC4)c3c2C)cc1`, the “% Inhibition” value is reported as -9% and the Z score is reported as 0.8.
`O=S(=O)(NC[C@@H](CO)Cc1ccco1)c1cc(F)cc(Cl)c1` was tested, and the “% Inhibition” value was -2% and the Z score was 0.29.
With `CCN(CC(=O)N1CCCN(c2ccc(-c3cccc(OC)c3)nn2)CC1)C(=O)c1ccc2c(c1)OCO2` the “% Inhibition” value was -11% and the Z score was 1.45.
For `COc1ccc(S(=O)(=O)N2CCC(=O)c3ccccc32)cn1`, the “% Inhibition” value was -7% and the Z score was 0.98.
In the case of `CCN(C(=O)c1ccn(C)c1C1CCC1)c1ccncc1`, the “% Inhibition” value is reported as -3% and the Z score is reported as 0.6.
For `Cc1nn(C)cc1[C@H](C)NC(=O)NCC1(C(=O)N(C)C)CCCC1`, the “% Inhibition” value was -9% and the Z score was 0.95.
`Cc1nc(NS(=O)(=O)c2ccccc2)sc1NC(=O)Nc1ccccc1Cl` was tested, and the “% Inhibition” value was -19% and the Z score was 2.48.
`CN(C(=O)c1ccncc1Cl)c1ncccc1C#N` was tested, and the “% Inhibition” value was 3% and the Z score was -0.41.
In the case of `COc1ccc(S(=O)(=O)N[C@H]2CCN(c3ccc(=O)n(CC4CC4)n3)C2)cc1Cl`, the “% Inhibition” value is reported as -7% and the Z score is reported as 0.85.
In the case of `COc1ccc(-c2cnc3ncnn3c2NCc2cccc(C)c2)cc1`, the “% Inhibition” value is reported as 6% and the Z score is reported as -1.12.
`CCNC(=O)C[C@H]1COCCN1C(=O)c1ccc(Cn2ccnc2)o1` was tested, and the “% Inhibition” value was -10% and the Z score was 1.33.
With `COc1cn(CCO)c(C(=O)Nc2cccc(Cl)c2)cc1=O` the “% Inhibition” value was -9% and the Z score was 1.21.
With `O=C(CCS(=O)(=O)c1ccc(Cl)cc1)Nc1ccc2c(c1)C(O)=Nc1cccnc1O2` the “% Inhibition” value was 18% and the Z score was -2.69.
In the case of `COc1cc2c(cc1OC)CN(C(=O)c1n[nH]c3c1CCC3)CC2`, the “% Inhibition” value is reported as -15% and the Z score is reported as 1.85.
With `Cc1cc(Br)c2ccccc2c1NC(=O)N(C)[C@H]1C[C@@H](C(N)=O)C1` the “% Inhibition” value was -4% and the Z score was 0.75.
`CCN(C(=O)[C@H]1CCS(=O)(=O)C1)c1ccc(OC)nc1` was tested, and the “% Inhibition” value was -33% and the Z score was 3.89.
`CC(C)CC(=O)Nc1ccc(C2OC(=O)N(Cc3ccccc3)C2C(=O)Nc2ccc(F)cc2)cc1` (stereo not drawn) was tested, and the “% Inhibition” value was 0% and the Z score was -0.06.
In the case of `COC(=O)c1cn(CC(=O)N2Cc3ccccc3N(C)C[C@@H]2C)nn1`, the “% Inhibition” value is reported as -8% and the Z score is reported as 1.51.
In the case of `O=C([C@@H](O)c1ccccc1)N1CCC(c2nc(-c3ccncc3)cs2)CC1`, the “% Inhibition” value is reported as -8% and the Z score is reported as 1.59.
For `Cc1ccc([C@H](C)NC(=O)CN(C)C2Cc3ccccc3C2)cc1`, the “% Inhibition” value was -10% and the Z score was 1.83.
For `CC(C)(C)c1nsc(NCc2ccc[n+]([O-])c2)n1`, the “% Inhibition” value was -1% and the Z score was 0.24.
In the case of `COc1ccc(C2=NN=C(c3ccc(C)cc3)Cc3c2c(=O)n(C)c(=O)n3C)cc1`, the “% Inhibition” value is reported as 5% and the Z score is reported as -0.48.
For `CCCn1cc(C(=O)N2C[C@H]3CCC[C@@]3(CO)C2)c(C)n1`, the “% Inhibition” value was -4% and the Z score was 0.57.
With `CC(OCC1CC1)C(=O)N1CCCC(n2cccn2)C1` (stereo not drawn) the “% Inhibition” value was -9% and the Z score was 1.23.
`CC(=O)N1CCC(C(=O)N2CCO[C@@H](CCCc3ccccc3)C2)CC1` was tested, and the “% Inhibition” value was -6% and the Z score was 0.73.
For `Cc1cccc(O[C@@H](C)C(=O)N2CCN(c3ccc(-n4ccnc4)nn3)CC2)c1`, the “% Inhibition” value was -13% and the Z score was 2.56.
In the case of `CC(C)n1ccnc1CN(CC(=O)O)Cc1ccc(Cl)s1`, the “% Inhibition” value is reported as -7% and the Z score is reported as 1.21.
`O=C(Nc1cccn2cnnc12)N(Cc1ccccn1)C1CCCCC1` was tested, and the “% Inhibition” value was -8% and the Z score was 1.61.
For `CC(C)Cn1cc(C(=O)NS(=O)(=O)c2ccsc2)cn1`, the “% Inhibition” value was -3% and the Z score was 0.31.
`CC(=O)NCC1=CCCN(Cc2cc3c(cc2Cl)OCO3)C1` was tested, and the “% Inhibition” value was -15% and the Z score was 2.62.
In the case of `O=C(CN1CCO[C@H]2COCC[C@H]21)Nc1cc(F)cc(F)c1`, the “% Inhibition” value is reported as 9% and the Z score is reported as -1.47.
With `COCC(=O)N1CC[C@@]2(O)CCN(Cc3ccc(F)cc3Cl)C[C@H]2C1` the “% Inhibition” value was 8% and the Z score was -1.03.
In the case of `Cn1c(C(=O)NC2(Cc3ccc(F)cc3)CC2)c2n(c1=O)CCCC2`, the “% Inhibition” value is reported as -17% and the Z score is reported as 1.81.
With `Brc1cncnc1N1CCCCC2CCCCC21` (stereo not drawn) the “% Inhibition” value was -6% and the Z score was 0.79.
With `Fc1ccc(OC[C@H]2CCOC2)c(-c2cccc3nccn23)c1` the “% Inhibition” value was -3% and the Z score was 0.35.
`O=C(c1cnn(Cc2ccccc2)c1)N1CCc2c(nnn2-c2ccccc2)C1` was tested, and the “% Inhibition” value was 11% and the Z score was -2.17.
With `CN1CC[C@H](Cc2nc(-c3cc(Cl)c4c(c3)OCCCO4)no2)C1` the “% Inhibition” value was -4% and the Z score was 0.54.
`COCc1nc(-c2ccc(OC3CN(S(=O)(=O)c4ccc(F)cc4)C3)cc2)no1` was tested, and the “% Inhibition” value was -13% and the Z score was 2.48.
In the case of `c1cn2cnnc2c(N2CC3CCCC3C2)n1` (stereo not drawn), the “% Inhibition” value is reported as -2% and the Z score is reported as 0.28.
`Fc1ccc(-c2n[nH]c3c2CN(CCCC(F)(F)F)CC3)cc1F` was tested, and the “% Inhibition” value was 1% and the Z score was -0.17.
For `CN(CC(=O)Nc1cccc(Oc2cccnn2)c1)c1ccccc1`, the “% Inhibition” value was -13% and the Z score was 1.91.
With `N#C[C@@H](NC(=O)c1ccnc(OCC(F)F)c1)c1ccsc1` the “% Inhibition” value was -2% and the Z score was 0.19.
For `CC(C)[C@@H](CO)NC(=O)NCc1cccc(Cl)c1F`, the “% Inhibition” value was 10% and the Z score was -1.55.
With `CCN1CCN(CC(=O)N2N=C(c3cccc(F)c3)C[C@H]2c2ccccc2C)CC1` the “% Inhibition” value was -6% and the Z score was 0.61.
`COc1ncnc(N(C)C)c1NC(=O)C(=O)NCc1ccccc1` was tested, and the “% Inhibition” value was 4% and the Z score was -0.53.
`CO[C@@H](C(=O)N(C)c1ncccc1F)c1ccccc1` was tested, and the “% Inhibition” value was 10% and the Z score was -1.83.
In the case of `Cc1cccc(OCC(C)NC(=O)NC(C)c2nccs2)c1` (stereo not drawn), the “% Inhibition” value is reported as -8% and the Z score is reported as 1.54.
`c1cc(-c2ccc3ncccc3c2)nc(N2CCNCC2)c1` was tested, and the “% Inhibition” value was 29% and the Z score was -3.69.
`CCOc1cccc([C@H](C)NS(=O)(=O)c2ccc3c(c2)NC(=O)CO3)c1` was tested, and the “% Inhibition” value was 5% and the Z score was -0.79.
With `O=C(CCc1nc(-c2ccoc2)no1)N1CCC[C@@H]1CN1CCCC1` the “% Inhibition” value was 2% and the Z score was -0.25.
In the case of `C=C1CCC(C(=O)N2CCN(c3ccc(F)cn3)CC2)CC1`, the “% Inhibition” value is reported as -4% and the Z score is reported as 0.76.
`Cc1nc(N[C@H]2CCC(=O)NC2)c2c(C)csc2n1` was tested, and the “% Inhibition” value was -10% and the Z score was 1.07.
With `C[C@H]1CCCN(C(C)(C)CNS(C)(=O)=O)C1` the “% Inhibition” value was -12% and the Z score was 1.24.
With `CC(C)(C)CNC(=O)C(C)(C)NC(=O)Nc1cccc(F)c1` the “% Inhibition” value was 6% and the Z score was -1.
For `O=C(N1CCC(Cc2cc(F)ccc2F)CC1)C1(O)COC1`, the “% Inhibition” value was 1% and the Z score was -0.08.
For `c1ccc(Nc2ncc(-c3ccc4ccccc4c3)s2)cc1`, the “% Inhibition” value was -12% and the Z score was 1.96.
For `FC(F)c1nnc(NCCCn2cccn2)s1`, the “% Inhibition” value was -27% and the Z score was 3.22.
With `Cc1ccc(CNC(=O)C[C@H]2CCS(=O)(=O)C2)cc1` the “% Inhibition” value was 34% and the Z score was -4.39.
With `Cc1ccc(NC(=O)c2ccc(CNC(=O)c3ccccc3)o2)cc1C` the “% Inhibition” value was 8% and the Z score was -1.37.
In the case of `C[C@@H](c1ccccc1)n1cnnc1Cc1c[nH]c2ccccc12`, the “% Inhibition” value is reported as 9% and the Z score is reported as -1.22.
For `Cn1cnc([C@@H]2CN(Cc3noc(C4CCC4)n3)C[C@H]2C(=O)NC2CC2)c1`, the “% Inhibition” value was -11% and the Z score was 1.47.
`CN1CCCC(CNc2ccc(C#N)cn2)C1c1cccs1` (stereo not drawn) was tested, and the “% Inhibition” value was -12% and the Z score was 1.24.
With `CC(=O)Nc1ccc(C(C)=O)cc1OCC(=O)Nc1ccc2c(c1)CCC2` the “% Inhibition” value was -9% and the Z score was 1.34.
For `Cc1cc([C@H]2C[C@H]3CC[C@@H](C2)N3C(=O)CN(C)C)ccc1F`, the “% Inhibition” value was -9% and the Z score was 0.82.
`Nc1cc(C(=O)NCc2cccc(CO)c2)n[nH]1` was tested, and the “% Inhibition” value was 0% and the Z score was 0.03.
With `CCCCN(CC(N)=O)CC(=O)Nc1ccc(Cl)cn1` the “% Inhibition” value was -6% and the Z score was 1.08.
With `CC1CCN(C(=O)N2CC(CF)C2)CC1` the “% Inhibition” value was 3% and the Z score was -0.31.
